Test results from PMC12136788.
Some of the results follow.

T1: UNK ZnF1-3 (human, UniProt Q9C0B0 31-174)
T1 sequence: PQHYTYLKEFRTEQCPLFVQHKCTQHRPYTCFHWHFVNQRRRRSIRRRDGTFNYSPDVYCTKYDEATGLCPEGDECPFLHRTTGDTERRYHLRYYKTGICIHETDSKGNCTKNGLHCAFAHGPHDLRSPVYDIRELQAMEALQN

B1: chr17:62496765:62496766:-_ENSG00000108654_ENST00000581693|hu_mus|FALSE|FALSE (ssRNA)
RNA: GGGAGUUCUACAGUCCGACGAUCUGCUUGAUUAGCUUCCCGAAGCACAGAGAUAAGGUCGCUCACUUGCUUUAUGUUAUUAGGUGUAAAGAAAGUGUAUGCUGUGCCUGUUUUGGUACUGCGAGCAGUUCUUCCAAUUCGAUGCAACAGAGGAUUGAGCAUCA
B2: 36049889_36050009_883_3pUTR_ENSG00000180660_ENST00000379919|human|control|control (ssRNA)
RNA: GGGAGUUCUACAGUCCGACGAUCCGGAUUUUGCGCGCCGAGAGGUAGCCGGAGGCGGUAAUGAAUUCCACCCAGAGGGACAUGCUCCUCUUGCGCCCGUCGCUCAACUUCAGCACCGCGCAGCCGGGCAGUGAGCCAUCGUCCCAACAGAGGAUUGAGCAUCA
B3: chr15:103022988:103022989:-_ENSMUSG00000009575_ENSMUST00000118152|mus_hu|FALSE|FALSE (ssRNA)
RNA: GGGAGUUCUACAGUCCGACGAUCGGAGUGGUAAGCAAUGACAUAAAUCAAAACCAUUGAGGGUUGCUUUGAUCCUGAGACAGUCUGAGUCUGCUUCAAACCCAUGGGGAAAGGAACUUUAAUCCCCAACCUGCAGAGAGAAAUCAACAGAGGAUUGAGCAUCA
B4: chr11:29607870:29607871:+_ENSMUSG00000020458_ENSMUST00000102843|mus_mus|FALSE|FALSE (ssRNA)
RNA: GGGAGUUCUACAGUCCGACGAUCGAACUCUGGACUUGGCUCAGUGGAGAGCUUUGUUUCUUUAAUUAAAUCACAUGCAAUGGAUAUAUAAGGAGCUUCUGCUUCCUGAGCAGCUGCAUUAAAACUUUCAGGCUCUUUAAUUUCCAACAGAGGAUUGAGCAUCA
B5: chr15:11317090:11317091:-_ENSMUSG00000022241_ENSMUST00000022849|mus_hu|FALSE|FALSE (ssRNA)
RNA: GGGAGUUCUACAGUCCGACGAUCUUCUGUGAGGAUAGCAAUCAUUCUUUCCACUGAUCCCAAGAUGGCUCGAUGAACAAUCACUGGCCUUUUCUUAUCAUCACCAUCAUGGCUUACAUAAGUAAGAUUAAAUCUGAUGGGCAACAACAGAGGAUUGAGCAUCA
B6: chr15:68825492:68825493:+_ENSMUSG00000022332_ENSMUST00000022954|mus_mus|FALSE|FALSE (ssRNA)
RNA: GGGAGUUCUACAGUCCGACGAUCUAUCACCACGUCAAUGUACUUCUCUUCCUCCUUGCCUUCUCCCUUUUGAAACUUUUCUAUUUCUCGGUUCACCAAGCGCAGGGCGUGCGUGAAGGAGGGGUCCAGAGAGUCCUUCUCCGCCAACAGAGGAUUGAGCAUCA
B7: chr2:55199926:55199927:-_ENSG00000115310_ENST00000317610|hu_hu|FALSE|FALSE (ssRNA)
RNA: GGGAGUUCUACAGUCCGACGAUCCAUUUCAGAAAAUCUGCAUCAAUCUACACGGACCAUACACAGUGCACAAACUGAAAAGGGCUUUUUUUUUUUUUUUUCUAGCUCCACCAUCUCUGCAACUUGCCAAGAUGCGGCAAGACUCAACAGAGGAUUGAGCAUCA
B8: chr5:64942916:64942917:+_ENSG00000113597_ENST00000231526|hu_hu|motif|central (ssRNA)
RNA: GGGAGUUCUACAGUCCGACGAUCAGCAUUGGAGGCUGAAAGAUUUAAACGCUGAGAACUUGUCUGAAGAUCAGCUUUUACGGAUAUGUCUUUUACAACUUGAUUGCUAUCAUUAUGAACGCUGAUAUAACUGGAAAAGGUCUCCAACAGAGGAUUGAGCAUCA
B9: chr1:174973770:174973771:+_ENSG00000116161_ENST00000406752|hu_hu|motif|central (ssRNA)
RNA: GGGAGUUCUACAGUCCGACGAUCGAUUUCUGUCUCAAUCUUGGAUUUUUCAGCUGUAAGGGCAUCACGUACUCUUUUCCGGGUAGCCUUUUCCAGCAACACCUUUACCUCUUCUAGAUCUUUCUGUAGCUCUUCUGAAGCCAUCAACAGAGGAUUGAGCAUCA
B10: chr15:63447868:63447869:-_ENSG00000185088_ENST00000411926|hu_hu|motif|central (ssRNA)
RNA: GGGAGUUCUACAGUCCGACGAUCCCCUUCUGUGAGUCUGGCCUUUCCUCCUGUAGGCUGGCACAACACUGUUGAACAACCGGCACAAAGAACCACUGUCUGAGCAUGGCUGAAAACCGUGGUGAUCUUGUAGCAACCUGGACACAACAGAGGAUUGAGCAUCA
B11: chr4:71691144:71691145:-_ENSG00000132463_ENST00000545193|hu_mus|FALSE|FALSE (ssRNA)
RNA: GGGAGUUCUACAGUCCGACGAUCGGCCUUCCCACUGGAGCUGUAUUCCAUGGUGAUUCUCACAGGCUUCAGGGGAGCAAAGAAAUUUAUAAUGUCUUGGGCAUUGGCUUGGAAAGGCAAUCCUCUCAUGUGGACAAAAUGCAGCAACAGAGGAUUGAGCAUCA
B12: chr13:90237973:90237974:+_ENSMUSG00000012422_ENSMUST00000161568|mus_mus|FALSE|FALSE (ssRNA)
RNA: GGGAGUUCUACAGUCCGACGAUCAAGCACAUGUACAUAUAAGCAGCAAGAUUACAGUCAACAGACUCUGAAAAUUGAAAAUGGCAGACAUAGUGAGGCCGGUGCUGGUCCAGCCACAUCACCCUUCCGGGCCGGGGCGGAAGACAACAGAGGAUUGAGCAUCA
B13: 86681155_86682711_2440_CDS_ENSG00000145715_ENST00000456692|human|control|control (ssRNA)
RNA: GGGAGUUCUACAGUCCGACGAUCAUCUAAAAACAUGAUCAUACGAUGUUUGUUGCUUUUGAUGAAUGGAUUGACACCUUCCAUGUAGGGCUCCUUAGCUCCAAAUUCCACAAGAUUUGCUAAGUUCUGCACAGAUUUAGCCACCAACAGAGGAUUGAGCAUCA
B14: chr17:65740002:65740003:+_ENSG00000130935_ENST00000581375|hu_hu|hu_hu_hu_mus_False|48_88 (ssRNA)
RNA: GGGAGUUCUACAGUCCGACGAUCAACAAAUCUUUCUUCCCUGGACGCAAGAGUUCAUUCAUAUUAAAAAAAAUAUAUAUCCAUCAAGGAGAAUUGAGUGGCCACACCUUUACUCCCAGCACUUUGGGAGGUGGAUCUCUGAGUCAACAGAGGAUUGAGCAUCA
B15: chr12:49579495:49579496:-_ENSG00000167552_ENST00000550767|hu_hu|FALSE|FALSE (ssRNA)
RNA: GGGAGUUCUACAGUCCGACGAUCGGCUCCAUCAAAUCUCAGGGAAGCAGUGAUGGAGGACACAAUUUGACCUAUUAACCUAUUCAGGUUAGUAUAGGUUGGACGCUCAAUAUCGAGGUUUCUACGACAGAUGUCAUAGAUGGCCAACAGAGGAUUGAGCAUCA
B16: chr17:65740002:65740003:+_ENSG00000130935_ENST00000581375|hu_hu|hu_hu_hu_mus_False|8_28 (ssRNA)
RNA: GGGAGUUCUACAGUCCGACGAUCAACAAAUCUUUCUUCCCUGGACGAACAGGAAGAUUCAUAUUAAAAAAAAUAUAUAUCCAUCAAGUUAGGUGUGGUGGCCACACAGAGCUCCAGAGCACUUUGGGAAUAUAAUCUCUGAGUCAACAGAGGAUUGAGCAUCA
B17: chr2:5814250:5814251:-_ENSMUSG00000025816_ENSMUST00000102981|mus_hu|mus_mus_mus_hu_True|18_28 (ssRNA)
RNA: GGGAGUUCUACAGUCCGACGAUCUUCCUUUCCGGUUUCUGAAUUUCUGGUAGAACUGCACAGAAUGGUUUGAUAACUUCUAAAAAUUUGAUGCCCAUGGCUGCUGCUCAGCACACCCGGCGGGCACCCGCGGCCUCGGCGCUGCAACAGAGGAUUGAGCAUCA
B18: chr2:48026839:48026840:+_ENSG00000116062_ENST00000540021|hu_hu|hu_hu_hu_mus_False|38_68 (ssRNA)
RNA: GGGAGUUCUACAGUCCGACGAUCAUAGUGAGCCACUAGCGUCCUAAAUCUGGAACAGUGGCGGUCAUCUGAAAACUGGCCGAUGAAAAACUUGCCCAGUGAAGUAUCCACAAAGCAAACACCAUACACACGAGUGUGACCAGACAACAGAGGAUUGAGCAUCA
B19: chr1:213186598:213186599:-_ENSG00000174606_ENST00000366962|hu_mus|FALSE|FALSE (ssRNA)
RNA: GGGAGUUCUACAGUCCGACGAUCAAACUGCGUUCCAGACUCAAACAGAAAAGGUGGUCUACAGUUCAAUGAGAAAUGCCUGCUACUGAAGUAUGGGUAAGGCGCACGGGAGUAAUGUCCUGGCCACCUCAGACAACUGGAAAUCAACAGAGGAUUGAGCAUCA
B20: 91712666_91712786_8636_CDS_ENSG00000127914_ENST00000356239|human|control|control (ssRNA)
RNA: GGGAGUUCUACAGUCCGACGAUCGAUUAUUUCAGUAACUUCUUCUGAGGAACAUUCACUCUGUAAAUUAAUUUGUAUUCCUGCAUUUUUAACAAGAAUUUGUGGAGUCUGAUUGCUGCUACUGAUCUUCAGAGUCCCAUCUGUCAACAGAGGAUUGAGCAUCA
B21: chr11:100452292:100452293:-_ENSMUSG00000014195_ENSMUST00000014339|perfect_dup|FALSE|FALSE (ssRNA)
RNA: GGGAGUUCUACAGUCCGACGAUCAUUUGUUUUUAUGUUGUUGGGAUCUAUCCCCAAGGCUUCUGUGUACAGUUCAUAUGCUAGCUUGUAAUUUCCUUCCUUAAAGGCUUUAUUCCCAUCUUCCUUCUUGGCUUUAAGGGCUUUCAACAGAGGAUUGAGCAUCA
B22: chr16:94664741:94664742:+_ENSMUSG00000040785_ENSMUST00000117648|mus_hu|mus_mus_mus_hu_False|58_68 (ssRNA)
RNA: GGGAGUUCUACAGUCCGACGAUCUGGUACUGAUCUUGGUAGCUGAUAUUCAGGAGAAAGGCUGGCCAAAGGUGUGUAAAUGCUAGUGUACUGGGGCAAACCUGGUAACACGUUUAUGUAUGCUGGCGGUGUCUGGGUGAUAUCCAACAGAGGAUUGAGCAUCA

These binders were tested against T1, UNK ZnF1-3 (assay: nsRBNS (natural sequence RNA bind-n-seq); RBNS binding buffer (assumed for nsRBNS): 25 mM Tris pH 7.5, 150 mM KCl, 3 mM MgCl2, 0.01% Triton X-100, 500 ug/ml BSA, 20 U/ml SUPERase-In, 4 C; UNK is unkempt and MSI1 is Musashi-1; names of the RNAs are library labels; protein concentration not given here; high values mean tight binding).

Row | Binder | binding signal
1 | B1 | 0.527 enrichment R
2 | B2 | 1.07 enrichment R
3 | B3 | 0.782 enrichment R
4 | B4 | 1.3 enrichment R
5 | B5 | 1.26 enrichment R
6 | B6 | 0.954 enrichment R
7 | B7 | 1.44 enrichment R
8 | B8 | 1.48 enrichment R
9 | B9 | 0.406 enrichment R
10 | B10 | 1.3 enrichment R
11 | B11 | 1.29 enrichment R
12 | B12 | 1.78 enrichment R
13 | B13 | 0.788 enrichment R
14 | B14 | 1.65 enrichment R
15 | B15 | 0.76 enrichment R
16 | B16 | 1.83 enrichment R
17 | B17 | 0.895 enrichment R
18 | B18 | 1.1 enrichment R
19 | B19 | 1.25 enrichment R
20 | B20 | 0.835 enrichment R
21 | B21 | 0.338 enrichment R
22 | B22 | 0.969 enrichment R
